According to PubChem BioAssay AID588591 (National Center for Advancing Translational Sciences (NCATS), 2011):
In all, about 390,000 compounds went through this assay and about 4,700 (1.2%) were called active. The inconclusive results got no clear call from the source; some entries with a clear call stand among them for comparison. Calls come from the whole dose curve; as a rule, active = well fitted inhibition curve with a large enough effect; inconclusive = small, poorly fitted or top-dose-only effect, or another doubt; inactive = no such curve, though single readings can be large or run the other way. Potencies beside an inconclusive call are fits to weak or partial responses and may not hold up.
% is set by controls: 0 for no effect and ±100 for the full control effect; potency is the fitted concentration of half-maximal effect; tags give direction and shape of the fitted curve.

What follows are compounds tested against DNA polymerase eta (Homo sapiens) (UniProt Q9Y253) (assay: qHTS for Inhibitors of Polymerase Eta). Conditions: recombinant Pol eta, fluorescent DNA replication assay; series mostly up to 114 µM; activity change, negative = inhibition: at the top concentration.
Chain of UniProt Q9Y253 (Q9Y253 whole entry, looked up): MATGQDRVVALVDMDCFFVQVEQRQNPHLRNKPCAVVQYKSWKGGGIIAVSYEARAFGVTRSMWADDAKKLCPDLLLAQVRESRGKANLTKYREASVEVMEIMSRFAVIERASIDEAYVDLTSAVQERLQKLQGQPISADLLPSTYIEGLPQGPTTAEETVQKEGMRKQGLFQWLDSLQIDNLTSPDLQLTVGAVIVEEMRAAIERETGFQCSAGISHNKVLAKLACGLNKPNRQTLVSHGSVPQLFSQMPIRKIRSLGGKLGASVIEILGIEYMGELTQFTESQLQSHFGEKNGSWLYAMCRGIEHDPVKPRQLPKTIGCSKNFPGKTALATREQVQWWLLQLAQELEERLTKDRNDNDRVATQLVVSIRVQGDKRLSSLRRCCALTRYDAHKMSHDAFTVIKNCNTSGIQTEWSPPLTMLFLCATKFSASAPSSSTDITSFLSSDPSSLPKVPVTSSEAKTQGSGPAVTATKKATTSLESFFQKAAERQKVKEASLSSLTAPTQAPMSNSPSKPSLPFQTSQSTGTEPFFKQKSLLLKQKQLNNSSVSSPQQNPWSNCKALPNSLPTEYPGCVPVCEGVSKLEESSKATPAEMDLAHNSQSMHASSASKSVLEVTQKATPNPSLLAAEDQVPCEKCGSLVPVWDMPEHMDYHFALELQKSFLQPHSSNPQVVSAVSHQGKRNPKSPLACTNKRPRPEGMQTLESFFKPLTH
Summary of the method: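 Pol eta at 10 nM preincubated with compounds 15 min at room temperature; reaction started with fluorescent substrate (50 nM final) and read kinetically at 0 and 10 min.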
For `Cc1nnc(SCc2ccc(CSc3nnc(C)c(=O)[nH]3)cc2)[nH]c1=O`, the Potency was active: 79.4 µM.
With `CC(=O)Oc1ccc(C(=O)Nc2cccc(C(=O)Nc3ccccc3C(=O)O)c2)cc1` the “activity change, negative = inhibition” value was inactive: 9.41%.
With `CCCNC(=O)c1cc(-c2ccc(Br)cc2)on1` the Potency was inconclusive: 31.6 µM [inhibitor, single point].
With `O=C(CCNS(=O)(=O)c1ccc2[nH]c(=O)oc2c1)NCc1ccccc1` the “activity change, negative = inhibition” value was inactive: 9.03%.
For `COCCn1c(SCC(=O)NCc2ccccc2)nnc1-c1ccco1`, the “activity change, negative = inhibition” value was inactive: -8.66%.
In the case of `Nc1nonc1-n1nnc(C(=O)N/N=C/c2ccccc2Cl)c1CN1CCOCC1`, the “activity change, negative = inhibition” value was inactive: -6.34%.
In the case of `Cc1c(Cl)cnc(NC(=O)CSc2n[nH]c(N)n2)c1Cl`, the Potency was inconclusive: 79.4 µM [inhibitor, partial curve, poor fit].
`C=CCn1c(CNC(=O)c2cccs2)nnc1SCC(=O)Nc1ccc(C(=O)O)cc1` was tested, and the Potency was inconclusive: 31.6 µM [inhibitor, single point].
In the case of `O=C(CSc1nncs1)Nc1ccc(Cl)cc1C(F)(F)F`, the “activity change, negative = inhibition” value was inactive: -7.75%.
`Nc1nnc2cc(F)ccc2n1` was tested, and the Potency was inconclusive: 35.5 µM [inhibitor, partial curve, poor fit].
`CCOc1ccc(C(=O)NCCn2cc(SCC(=O)NCCc3ccc(OC)c(OC)c3)c3ccccc32)cc1` was tested, and the Potency was inconclusive: 100 µM [inhibitor, partial curve, poor fit].
For `O=C(CC1N=C2c3ccccc3N=C(SCc3ccccc3Cl)N2C1=O)NCc1ccco1` (stereo unspecified), the Potency was inconclusive: 14.1 µM [inhibitor, partial curve, poor fit].
With `Cc1cccc(C)c1NC(=O)CN1C(=O)S/C(=C\c2cccn2-c2cccc(C(=O)O)c2)C1=O` the Potency was active: 22.4 µM.
In the case of `COc1ccccc1C1C(C(C)=O)=C(O)C(=O)N1c1ccc(O)cc1` (stereo unspecified), the “activity change, negative = inhibition” value was inactive: -5.18%.
For `COC(=O)C1CCN(CC(=O)Nc2sc3c(c2C#N)CCC3)CC1`, the Potency was inconclusive: 28.2 µM [inhibitor, single point].
`O=C(N/N=C/c1cc([N+](=O)[O-])ccc1Cl)c1ccc2nc[nH]c2c1` was tested, and the Potency was inconclusive: 39.8 µM [inhibitor, partial curve, poor fit].
In the case of `CCOc1ccc(CNC(=O)c2c(C)nn(-c3ccc(F)cc3)c2-n2cccc2)cc1`, the “activity change, negative = inhibition” value was inactive: -22.9%.
With `CC(C)Cc1nnc(NC(=O)c2ccc3c(c2)NC(=O)C(C)S3)s1` (stereo unspecified) the “activity change, negative = inhibition” value was inactive: -13.4%.
In the case of `Cc1noc(Cn2c(=O)c3cc4c(cc3n(CC(=O)Nc3cccc(Cl)c3)c2=O)OCO4)n1`, the “activity change, negative = inhibition” value was inactive: -8.45%.
In the case of `O=C(Nc1ccc(SC(F)F)cc1)c1cc(-c2ccc3c(c2)OCCO3)on1`, the “activity change, negative = inhibition” value was inactive: -15.9%.
For `Cc1cc(C)c2nc(-c3ccccn3)cc(C(=O)Nc3cc(C)on3)c2c1`, the Potency was inconclusive: 15.8 µM [inhibitor, single point].
`CCC(=O)Nc1ccc(S(=O)(=O)NCc2ccco2)cc1` was tested, and the Potency was inconclusive: 8.91 µM [inhibitor, full curve, poor fit].
For `COCCN1C(=O)CC(NNC(=O)c2ccc(S(=O)(=O)N3CCCC3)cc2)C1=O` (stereo unspecified), the “activity change, negative = inhibition” value was inactive: 0.975%.
`O=C(CSc1nc2c(cnn2-c2ccc(F)cc2)c(=O)[nH]1)Nc1ccc(Br)cc1` was tested, and the Potency was active: 56.2 µM.
In the case of `CC(C)C(CCNC(=O)CC(Cc1ccccc1)c1ccco1)c1ccco1` (stereo unspecified), the Potency was active: 79.4 µM.
In the case of `CSc1nnc2c3cc(C)ccc3n(Cc3ccccc3)c2n1`, the Potency was inconclusive: 6.31 µM [inhibitor, partial curve].
With `O=S(=O)(NCC(c1cccnc1)N1CCN(c2ccc(F)cc2)CC1)c1ccccc1` (stereo unspecified) the “activity change, negative = inhibition” value was inactive: -15.6%.
With `Cc1cc(NC(=O)Cc2cccs2)no1` the Potency was active: 22.4 µM.
`CC1CCCCC1NC(=O)COC(=O)c1ccc(S(=O)(=O)NCc2ccco2)cc1` (stereo unspecified) was tested, and the Potency was inconclusive: 12.6 µM [inhibitor, partial curve, poor fit].
With `Cc1cc[n+](-c2[nH]c(=O)sc2/C=N/N=C(\[O-])c2ccncc2)cc1` the Potency was active: 79.4 µM.
With `CCCCCCCCCCCCCCC[C@H](O)[C@H](N)CO` the Potency was inconclusive: 39.8 µM [inhibitor, single point].
In the case of `CCC1=C2CC[C@H]3C(=O)N(CC)C(=O)[C@H]3[C@H]2[C@@]2(Cc3ccccc3)C(=NCc3ccccc3)OC(=O)N2C1=O`, the Potency was inconclusive: 89.1 µM [inhibitor, partial curve, poor fit].
`Cc1ccc(S(=O)(=O)NN2C(=O)/C(=C\c3ccc(Cl)cc3)SC2=S)cc1` was tested, and the Potency was active: 39.8 µM.
With `CCOC(=O)Cc1cc(=O)n2[nH]c(-c3ccccc3)c(-c3ccccc3)c2n1` the Potency was active: 79.4 µM.
In the case of `COc1ccccc1C(=O)Oc1ccc2c(c1)O/C(=C\c1ccncc1)C2=O`, the Potency was inconclusive: 25.1 µM [inhibitor, single point].
For `CCc1ccc(OCC(=O)N/N=C\c2ccco2)c([N+](=O)[O-])c1`, the Potency was inconclusive: 10 µM [inhibitor, full curve, poor fit].
For `Cc1ccc2c(=O)cc(C(=O)NCCc3ccc(S(N)(=O)=O)cc3)oc2c1`, the Potency was active: 22.4 µM.
With `COc1ccc2cc(CN(CC3COCCO3)S(=O)(=O)c3ccc(Cl)cc3)c(=O)[nH]c2c1` (stereo unspecified) the Potency was inconclusive: 39.8 µM [inhibitor, single point].
In the case of `CCOc1cc(CNCCSc2nnnn2-c2ccccc2)cc(Cl)c1OC`, the “activity change, negative = inhibition” value was inactive: -23.3%.
With `O=C(CSc1nc2ccccc2[nH]1)c1ccco1` the Potency was inconclusive: 28.2 µM [inhibitor, partial curve].
`Cc1ccc(S(=O)(=O)/N=C2\C=C(Nc3cccc(C(=O)O)c3)C(=O)c3ccccc32)c(C)c1` was tested, and the Potency was active: 22.4 µM.
In the case of `COc1ccc(NC(=O)c2cc3ccccc3o2)cc1OC`, the Potency was inconclusive: 0.158 µM [inhibitor, full curve, poor fit].
With `O=C(O)CCc1nc2ccccc2n(CCc2ccccc2)c1=O` the Potency was inconclusive: 35.5 µM [inhibitor, partial curve, poor fit].
In the case of `c1ccc2c(c1)oc1c(NCc3ccc4c(c3)OCO4)ncnc12`, the Potency was inconclusive: 39.8 µM [inhibitor, partial curve, poor fit].
For `O=Cc1ccc2oc3nc4n(c(=O)c3c(=O)c2c1)CCCS4`, the Potency was active: 2.51 µM.
`COc1ccc(/C=N/NC(=O)c2ccc(Br)cc2)cc1Cn1cc(Cl)cn1` was tested, and the Potency was inconclusive: 79.4 µM [inhibitor, partial curve].
